# Reference: the supplement of paper PMC10369915
# This is one part of the list. No stated cut-off is given here; in the data, active = 3.2 or more and inactive = the rest. Most of these values are background signal.
# B1: FGG_Y300_T303P (peptide)
# chain: PEADKYRLPYA
# B2: FLG_Y3940_S3935P (peptide)
# chain: PQDSAYHSGIQ
# B3: FLNB_Y704 (peptide)
# chain: RMDGTYACSYT
# B4: FLT1_Y815 (peptide)
# chain: CERLPYDASKW
# B5: FLT4_Y1231 (peptide)
# chain: LAARYYNWVSF
# B6: FLT4_Y1333_Y1333H (peptide)
# chain: GGQVFHNSEYG
# B7: FHL1_Y208 (peptide)
# chain: VEDQYYCVDCY
# B8: FLNA_Y1763_A1764T (peptide)
# chain: APQYTYTQGGQ
# B9: FLNA_Y2388_R2391H (peptide)
# chain: IDQDKYAVHFI
# B10: FLT4_Y1231_S1235C (peptide)
# chain: LAARYYNWVCF
# B11: FLNB_Y1687_YF (peptide)
# chain: GTFVIYVRFGG
# B12: FN1_Y101_N104S (peptide)
# chain: TCFDKYTGSTY
# B13: FLNB_Y1020_V1018M (peptide)
# chain: AVDMTYDGHPV
# B14: FHL1_Y117_W122S (peptide)
# chain: DQNVEYKGTVS
# B15: FN1_Y1975_L1974R (peptide)
# chain: YKIYRYTLNDN
# B16: FGG_Y300_R301H_YF (peptide)
# chain: PEADKYHLTFA
# B17: FHL1_Y149_C150S (peptide)
# chain: KGEDFYSVTCH
# B18: FGFR4_Y237_S232I_YF (peptide)
# chain: IIRFNYLLDVL
# B19: FN1_Y101 (peptide)
# chain: TCFDKYTGNTY
# B20: FLNA_Y1761 (peptide)
# chain: QLAPQYTYAQG
# B21: FN1_Y1975 (peptide)
# chain: YKIYLYTLNDN
# B22: FLNA_Y287 (peptide)
# chain: KKARAYGPGIE
# B23: FLNB_Y1687 (peptide)
# chain: GTYVIYVRFGG
# B24: FH_Y110_N107T (peptide)
# chain: EVTQDYGLDPK
# B25: FLNB_Y708_YF (peptide)
# chain: TFACSYTPVKA
# B26: FHL1_Y149_C153Y_YF (peptide)
# chain: KGEDFYCVTFH
# B27: FMNL2_Y352 (peptide)
# chain: LGLDEYLDKLK
# B28: FHL1_Y207_YF (peptide)
# chain: AVEDQYFCVDC
# B29: FGFR4_Y390 (peptide)
# chain: LLAGLYRGQAL
# B30: FN1_Y101_YF (peptide)
# chain: TCFDKYTGNTF
# B31: FN1_Y937 (peptide)
# chain: SAVTGYRVDVI
# B32: FLT4_Y1230_S1235C_YF (peptide)
# chain: SLAARYFNWVC
# B33: FLT4_Y1333_Y1333H_YF (peptide)
# chain: GGQVFHNSEFG
# B34: FLT1_Y199 (peptide)
# chain: ISNATYKEIGL
# B35: FLNA_Y1763_YF (peptide)
# chain: APQFTYAQGGQ
# B36: FHL1_Y149_C150Y_YF (peptide)
# chain: KGEDFYFVTCH
# B37: FLT4_Y1230_S1235C (peptide)
# chain: SLAARYYNWVC
# Biological target: SHP2 C-SH2 domain E139D
# Assay: enrichment score (SH2-bound / input frequency) (ratio); bacterial display of known human phosphotyrosine sites (pTyr-Var adds point mutants) read by sequencing; higher = stronger binding; tyrosines were phosphorylated by kinases first
# Details: peptide library: pTyr-Var
# 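Further: displayed peptides selected on beads carrying the immobilized SH2 domain, with library peptides lacking any tyrosine serving as negative controls.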
row,Binder,enrichment score
1,B1,inactive: 0.475
2,B2,inactive: 0.578
3,B3,inactive: 0.581
4,B4,inactive: 0.616
5,B5,active: 3.73
6,B6,inactive: 0.814
7,B7,active: 6.33
8,B8,inactive: 0.927
9,B9,inactive: 0.787
10,B10,inactive: 1.64
11,B11,inactive: 0.37
12,B12,inactive: 0.701
13,B13,inactive: 0.659
14,B14,inactive: 0.643
15,B15,inactive: 0.873
16,B16,inactive: 0.863
17,B17,inactive: 0.826
18,B18,active: 4.73
19,B19,inactive: 1.01

row,Binder,enrichment score
1,B20,inactive: 0.823
2,B21,inactive: 0.895
3,B22,inactive: 0.412
4,B23,inactive: 1.27
5,B24,inactive: 0.405
6,B25,inactive: 2.27
7,B26,inactive: 0.779
8,B27,inactive: 1.03
9,B28,inactive: 1.71
10,B29,inactive: 1.81
11,B30,inactive: 1.01
12,B31,inactive: 0.781
13,B32,inactive: 3.1
14,B33,inactive: 0.944
15,B34,inactive: 0.81
16,B35,inactive: 0.839
17,B36,inactive: 0.721
18,B37,inactive: 2.35

# Biological target: SHP2 C-SH2 domain wild-type
# Assay: as above
# Details: peptide library: pTyr-Var
row,Binder,enrichment score
1,B1,inactive: 0.773
2,B2,inactive: 0.484
3,B3,inactive: 0.552
4,B4,inactive: 0.788
5,B5,active: 3.75
6,B6,inactive: 0.706
7,B7,active: 5.22
8,B8,inactive: 0.816
9,B9,inactive: 0.815
10,B10,inactive: 1.76
11,B11,inactive: 0.583
12,B12,inactive: 0.655
13,B13,inactive: 0.485
14,B14,inactive: 0.524
15,B15,inactive: 0.798
16,B16,inactive: 1.04
17,B17,inactive: 1.02
18,B18,active: 3.53
19,B19,inactive: 1.27

row,Binder,enrichment score
1,B20,inactive: 1.47
2,B21,inactive: 1.29
3,B22,inactive: 0.385
4,B23,inactive: 1.27
5,B24,inactive: 0.377
6,B25,inactive: 1.47
7,B26,inactive: 1.28
8,B27,inactive: 1.15
9,B28,inactive: 1.61
10,B29,inactive: 1.41
11,B30,inactive: 1.42
12,B31,inactive: 0.565
13,B32,inactive: 2.69
14,B33,inactive: 0.741
15,B34,inactive: 0.614
16,B35,inactive: 0.378
17,B36,inactive: 1.01
18,B37,inactive: 2.59

# Biological target: SHP2 N-SH2 domain L43F
# Assay: as above
# Details: peptide library: pTyr-Var
row,Binder,enrichment score
1,B1,inactive: 0.512
2,B2,inactive: 0.536
3,B3,inactive: 0.706
4,B4,inactive: 0.636
5,B5,active: 3.6
6,B6,inactive: 0.714
7,B7,active: 6.12
8,B8,inactive: 0.296
9,B9,inactive: 0.955
10,B10,inactive: 1.87
11,B11,inactive: 0.481
12,B12,inactive: 0.629
13,B13,inactive: 0.664
14,B14,inactive: 0.446
15,B15,inactive: 0.692
16,B16,inactive: 1.19
17,B17,inactive: 0.832
18,B18,active: 4.06
19,B19,inactive: 0.89

row,Binder,enrichment score
1,B20,inactive: 0.667
2,B21,inactive: 1.44
3,B22,inactive: 0.56
4,B23,inactive: 1.3
5,B24,inactive: 0.542
6,B25,inactive: 1.29
7,B26,inactive: 1.12
8,B27,inactive: 1.02
9,B28,inactive: 1.68
10,B29,inactive: 1.64
11,B30,inactive: 0.829
12,B31,inactive: 0.726
13,B32,inactive: 2.81
14,B33,inactive: 0.757
15,B34,inactive: 1.02
16,B35,inactive: 0.682
17,B36,inactive: 0.672
18,B37,inactive: 2.22

# Biological target: SHP2 N-SH2 domain T42A
# Assay: as above
# Details: peptide library: pTyr-Var
row,Binder,enrichment score
1,B1,inactive: 0.581
2,B2,inactive: 0.552
3,B3,inactive: 0.588
4,B4,inactive: 0.67
5,B5,active: 3.69
6,B6,inactive: 0.577
7,B7,active: 5.57
8,B8,inactive: 1.72
9,B9,inactive: 0.65
10,B10,inactive: 1.39
11,B11,inactive: 0.33
12,B12,inactive: 0.543
13,B13,inactive: 0.581
14,B14,inactive: 0.451
15,B15,inactive: 0.715
16,B16,inactive: 1.41
17,B17,inactive: 0.689
18,B18,active: 4.06
19,B19,inactive: 0.834

row,Binder,enrichment score
1,B20,inactive: 0.755
2,B21,inactive: 1.03
3,B22,inactive: 0.46
4,B23,inactive: 1.37
5,B24,inactive: 0.416
6,B25,inactive: 3.05
7,B26,inactive: 0.837
8,B27,inactive: 0.958
9,B28,inactive: 1.42
10,B29,inactive: 1.53
11,B30,inactive: 0.867
12,B31,inactive: 0.477
13,B32,inactive: 2.25
14,B33,inactive: 0.626
15,B34,inactive: 0.519
16,B35,inactive: 0.634
17,B36,inactive: 0.601
18,B37,inactive: 2.17

# Biological target: SHP2 N-SH2 domain T52S
# Assay: as above
# Details: peptide library: pTyr-Var
row,Binder,enrichment score
1,B1,inactive: 0.543
2,B2,inactive: 0.579
3,B3,inactive: 0.564
4,B4,inactive: 0.684
5,B5,active: 3.89
6,B6,inactive: 0.685
7,B7,active: 4.95
8,B8,inactive: 1.49
9,B9,inactive: 0.915
10,B10,inactive: 1.36
11,B11,inactive: 0.327
12,B12,inactive: 0.68
13,B13,inactive: 0.601
14,B14,inactive: 0.631
15,B15,inactive: 0.822
16,B16,inactive: 1.52
17,B17,inactive: 0.808
18,B18,active: 3.95
19,B19,inactive: 0.826

row,Binder,enrichment score
1,B20,inactive: 0.763
2,B21,inactive: 1.16
3,B22,inactive: 0.411
4,B23,inactive: 1.33
5,B24,inactive: 0.358
6,B25,inactive: 1.06
7,B26,inactive: 1.02
8,B27,inactive: 1.02
9,B28,inactive: 1.56
10,B29,inactive: 1.88
11,B30,inactive: 0.803
12,B31,inactive: 0.584
13,B32,inactive: 2.69
14,B33,inactive: 0.686
15,B34,inactive: 0.823
16,B35,inactive: 0.711
17,B36,inactive: 0.596
18,B37,inactive: 1.9

# Biological target: SHP2 N-SH2 domain wild-type
# Assay: as above
# Details: peptide library: pTyr-Var
row,Binder,enrichment score
1,B1,inactive: 0.785
2,B2,inactive: 0.798
3,B3,inactive: 0.679
4,B4,inactive: 0.83
5,B5,active: 3.31
6,B6,inactive: 0.769
7,B7,active: 5.47
8,B8,inactive: 2.37
9,B9,inactive: 0.877
10,B10,inactive: 1.8
11,B11,inactive: 0.656
12,B12,inactive: 0.76
13,B13,inactive: 0.579
14,B14,inactive: 0.692
15,B15,inactive: 0.844
16,B16,inactive: 1.07
17,B17,inactive: 1.25
18,B18,active: 3.71
19,B19,inactive: 1.58

row,Binder,enrichment score
1,B20,inactive: 0.872
2,B21,inactive: 1.2
3,B22,inactive: 0.504
4,B23,inactive: 1.45
5,B24,inactive: 0.68
6,B25,inactive: 1.4
7,B26,inactive: 1.59
8,B27,inactive: 0.979
9,B28,inactive: 1.78
10,B29,inactive: 1.53
11,B30,inactive: 1.41
12,B31,inactive: 0.546
13,B32,inactive: 2.94
14,B33,inactive: 0.805
15,B34,inactive: 0.657
16,B35,inactive: 0.718
17,B36,inactive: 0.836
18,B37,inactive: 2
